In US20240252670A1 (TSINGHUA UNIVERSITY, published 2024):

Target: T1, PD-L1 on the surface of murine cells (MC38, B16, wild-type DC 2.4) (murine, UniProt Q9EP73)
T1 construct: whole, on cells; also called PD-L1 antigen; Cd274 gene product
Test: FACS on MC38 cells, FITC-labeled goat anti-human secondary antibody
Text: A. The histograms of different colors represent, from top to bottom, the fluorescence signals measured for the negative control (NC) group, the secondary antibody group, the anti-PD-L1 antibody group, the anti-PD-L1 THIOMAB group, and the ADC HE-S2 group, respectively. B. Mean fluorescence intensity (MFI) measured after treatment with different antibody-based drugs on MC38. NC group: the negative control only added with the isotype antibody, with no secondary antibody added for staining; secondary antibody group: the control group added with the isotype antibody and stained with fluorescent secondary antibody. Student's t test was used to compare significant differences between the groups, and p<0.0001 is represented by ****.
With PD-L1 positive MC38 as a platform, the inventors verified whether ADC HE-S2 and the gene-modified anti-PD-L1 THIOMAB retained the original antibody-antigen binding capacity by using a fluorescence activated cell sorting (FACS) technique. […] The stained MC38 cells were analyzed on a BD FACSAria™ III flow cytometer, and the strength of FITC fluorescence signals on MC38 cells treated with different antibody-based drugs was detected and compared, so as to characterize the affinity of ADC, THIOMAB and antibodies to PD-L1.

T1 sequence (Q9EP73 19-290): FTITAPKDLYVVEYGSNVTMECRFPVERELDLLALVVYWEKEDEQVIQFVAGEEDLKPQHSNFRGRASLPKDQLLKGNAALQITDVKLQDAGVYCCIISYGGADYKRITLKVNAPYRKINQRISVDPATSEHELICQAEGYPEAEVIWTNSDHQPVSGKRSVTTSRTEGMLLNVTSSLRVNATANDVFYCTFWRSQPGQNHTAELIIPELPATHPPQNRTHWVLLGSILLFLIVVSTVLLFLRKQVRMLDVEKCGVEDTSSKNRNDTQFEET

B1: ADC HE-S2 (anti-PD-L1 THIOMAB conjugated to Compound D18 through a disulfide bond linker, DAR 2) (other)
heavy: EVQLLESGGGLVQPGGSLRLSCAASGFTFSSYIMMWVRQAPGKGLEWVSSIYPSGGITFYADTVKGRFTISRDNSKNTLYLQMNSLRAEDTAVYYCARIKLGTVTTVNYWGQGTLVTVSS[sequence of human IgG1 constant region omitted]
light: QSALTQPASVSGSPGQSITISCTGTSSDVGGYNYVSWYQQHPGKAPKLMIYDVSNRPSGVSNRFSGSKSGNTASLTISGLQAEDEADYYCSSYTSSSTRVFGTGTKVTVLGQPKANPTVTLFPPSSEELQANKATLVCLISDFYPGAVTVAWKADGSPVKAGVETTKPSKQSNNKYAASSYLSLTPEQWKSHRSYSCQVTHEGSTCEKTVAPTECS
modifications: Compound D18 (TLR7/8 agonist) with disulfide bond linker (from Compound 20) on the cysteine at position 226 of SEQ ID NO: 9; DAR of 2
notes: Antibody-drug conjugate made from anti-PD-L1 THIOMAB and Compound 20; also called ADC1
- MFI: 392
- shift rate of the FITC positive signal relative to the NC group: 34.2%
